{
  "source": "paper PMC6919601",
  "about": "“Identification of Plasmodium dipeptidyl aminopeptidase allosteric inhibitors by high throughput screening” (PLoS ONE, 2019)",
  "note": "Where “and” joins values, the source holds several entries; their conditions need not be identical. Identical values can stand only once. Among all 110,000 compounds or so, about 230 (0.21%) showed an effect of 50% or more. The list shows a part of the results.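 Note: 30 min substrate incubation versus DMSO and 10 µM JCP410 controls.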",
  "data": [
    {"biological_target": "DPAP1 (Plasmodium falciparum, UniProt Q8IIJ9)", "sequence (Q8IIJ9 whole entry, looked up)": "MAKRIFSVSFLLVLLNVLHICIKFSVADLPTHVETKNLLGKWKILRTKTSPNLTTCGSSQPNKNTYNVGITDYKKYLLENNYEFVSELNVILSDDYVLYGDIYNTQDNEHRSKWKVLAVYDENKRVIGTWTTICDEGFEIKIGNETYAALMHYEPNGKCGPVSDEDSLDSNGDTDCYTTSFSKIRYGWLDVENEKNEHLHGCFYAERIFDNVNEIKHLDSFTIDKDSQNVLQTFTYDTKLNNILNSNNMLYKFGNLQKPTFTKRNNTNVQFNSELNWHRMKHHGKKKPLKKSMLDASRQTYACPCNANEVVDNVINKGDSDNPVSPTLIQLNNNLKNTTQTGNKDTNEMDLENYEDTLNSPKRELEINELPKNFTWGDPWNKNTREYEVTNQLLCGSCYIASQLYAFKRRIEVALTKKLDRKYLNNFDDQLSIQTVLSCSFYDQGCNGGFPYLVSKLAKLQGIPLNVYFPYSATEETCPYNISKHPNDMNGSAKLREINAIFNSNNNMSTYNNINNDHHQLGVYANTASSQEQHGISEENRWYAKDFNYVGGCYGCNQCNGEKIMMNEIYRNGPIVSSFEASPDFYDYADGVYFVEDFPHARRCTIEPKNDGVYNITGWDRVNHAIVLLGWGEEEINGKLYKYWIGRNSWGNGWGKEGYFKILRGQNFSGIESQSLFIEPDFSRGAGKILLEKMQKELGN", "assay": "primary screen, percent inhibition; read by cleavage of a fluorogenic dipeptide substrate; higher = more effect of the substance", "design": "species or system P. falciparum D10 trophozoite lysates; single well", "values": [
      {"smiles": "CCCCCC1CCN2c3c1cc(C(=O)O)cc3C1C=CCC1C2c1ccccc1", "note": "(centres unmarked)", "% Inhibition @ 10 uM": "20.4%"},
      {"smiles": "CC(C)OP(=O)(CN1CCCCC1)OC(C)C", "% Inhibition @ 10 uM": "3.98%"},
      {"smiles": "Cc1ccc(CNC(=O)CSCc2ccccc2C)cc1", "% Inhibition @ 10 uM": "1.27%"},
      {"smiles": "COc1ccc(N2C(=O)c3ccccc3NC2c2ccc(C)cc2)cc1", "note": "(centres unmarked)", "% Inhibition @ 10 uM": "-1.96%"},
      {"smiles": "CCSc1nnc(NC(=O)c2cc(=O)c3cc(C)cc(C)c3o2)s1", "% Inhibition @ 10 uM": "5.06%"},
      {"smiles": "CCn1cc(/C=C2/NC(=O)N(Cc3ccccc3F)C2=O)c2ccccc21", "% Inhibition @ 10 uM": "-11.5%"},
      {"smiles": "CCOc1ccc(Cl)cc1/C=C1\\NC(=O)N(Cc2ccccc2F)C1=O", "% Inhibition @ 10 uM": "-5.51%"},
      {"smiles": "COc1ccc(-c2csc3nc4ccccc4n23)cc1", "% Inhibition @ 10 uM": "-4.01%"},
      {"smiles": "CCN1CCN(C(=O)c2ccc(CS(=O)c3ccc(C)cc3)o2)CC1", "note": "(centres unmarked)", "% Inhibition @ 10 uM": "-6.89%"},
      {"smiles": "COCc1nnc(NC(=O)CC(C)c2ccccc2)s1", "note": "(centres unmarked)", "% Inhibition @ 10 uM": "-5.2%"},
      {"smiles": "CC(=O)Nc1ccc(S(=O)(=O)N2CCN(C(=O)c3ccc(C)cc3)CC2)cc1", "% Inhibition @ 10 uM": "1.62%"},
      {"smiles": "CCC(C)N(C)c1ccc(NC(C)=O)cc1", "note": "(centres unmarked)", "% Inhibition @ 10 uM": "-1.36%"},
      {"smiles": "CCC(Sc1nc2nccnc2c(=O)n1Cc1ccccc1)C(=O)NC1CCCCC1", "note": "(centres unmarked)", "% Inhibition @ 10 uM": "-2.17%"},
      {"smiles": "O=C(CC(Nc1ccc2ncccc2c1)c1ccc(F)cc1)c1ccccc1", "note": "(centres unmarked)", "% Inhibition @ 10 uM": "-0.736%"},
      {"smiles": "CCOc1cc(S(=O)(=O)Nc2ccc(Cl)cn2)ccc1F", "% Inhibition @ 10 uM": "4.94%"},
      {"smiles": "CC(C)Oc1ccc(C(=O)NC2C3CC4CC(C3)CC2C4)cc1", "note": "(centres unmarked)", "% Inhibition @ 10 uM": "-4.56%"},
      {"smiles": "CCC(C)NC(=O)CSc1nnc(-c2ccc(OC)c(OC)c2)c(-c2ccc(OC)c(OC)c2)n1", "note": "(centres unmarked)", "% Inhibition @ 10 uM": "-0.251%"},
      {"smiles": "CC(C)C[C@@H](/C=C/S(C)(=O)=O)NC(=O)[C@@H](Cc1ccccc1)NC(=O)c1cnccn1", "% Inhibition @ 10 uM": "-1.5%"},
      {"smiles": "CC(C)(C)c1cc(-c2ccco2)c(C#N)c(S)n1", "% Inhibition @ 10 uM": "20.6%"},
      {"smiles": "COc1ccc2c(c1)Sc1ccccc1N2C(C)=O", "% Inhibition @ 10 uM": "1.96%"},
      {"smiles": "Cc1ccc(O)c(C(=O)CSc2ncc(-c3ccccc3)n2C)c1", "% Inhibition @ 10 uM": "3.66%"},
      {"smiles": "O=C(COc1ccccc1)N1CCN(c2cccc(Cl)c2)CC1", "% Inhibition @ 10 uM": "-3.74%"},
      {"smiles": "C=CCNc1nc(Cl)nc(N2CCCCC2)n1", "% Inhibition @ 10 uM": "-4.23%"},
      {"smiles": "CC1=C(C(=O)OCC(Cl)(Cl)Cl)C(c2ccc(O)cc2)NC(=O)N1", "note": "(centres unmarked)", "% Inhibition @ 10 uM": "4.35%"},
      {"smiles": "CC1OCC2C(CO1)C2(Cl)Cl", "note": "(centres unmarked)", "% Inhibition @ 10 uM": "-5.28%"},
      {"smiles": "CCc1cc2c(NCCCC(=O)O)nc(C)nc2s1", "% Inhibition @ 10 uM": "-1.28%"},
      {"smiles": "CN1C(=O)/C(=C\\c2ccc(OCC#N)cc2)S/C1=N/c1ccccc1", "% Inhibition @ 10 uM": "0.214%"},
      {"smiles": "CC(C)(C)c1ccc(OCCCCCN2CCCC2)cc1", "% Inhibition @ 10 uM": "-2.18%"},
      {"smiles": "O=C(NCc1cccnc1)c1nc(-c2ccc(Cl)cc2)n2c1CCCCC2", "% Inhibition @ 10 uM": "1.43%"},
      {"smiles": "O=C(Nc1ccc(F)c(Cl)c1)C1CC2CCC1C2", "note": "(centres unmarked)", "% Inhibition @ 10 uM": "3.29%"},
      {"smiles": "COc1ccccc1C(=O)CC(=O)c1ccccc1", "% Inhibition @ 10 uM": "0.674%"},
      {"smiles": "Cc1cc(C)c2oc(C(=O)N(Cc3ccc(C(C)(C)C)cc3)C3CCS(=O)(=O)C3)cc(=O)c2c1", "note": "(centres unmarked)", "% Inhibition @ 10 uM": "5.06%"},
      {"smiles": "CCC[C@@H](/C=C/S(=O)(=O)c1ccccc1)NC(=O)C1(NC(=O)N2CCN(C)CC2)CCCCC1", "% Inhibition @ 10 uM": "-8.26%"},
      {"smiles": "Cc1ccc(-c2onc(C)c2C)cc1S(=O)(=O)NCc1cccnc1", "% Inhibition @ 10 uM": "-7.06%"},
      {"smiles": "CCOc1cccc(-c2nc(O)c3c(n2)Oc2ccc(Cl)cc2C3)c1O", "% Inhibition @ 10 uM": "6.98%"},
      {"smiles": "N#Cc1ccc(/C=C/c2ccc(F)cc2)cc1", "% Inhibition @ 10 uM": "-1.21%"},
      {"smiles": "COc1ccc(Br)cc1CNCCCSc1nnnn1C", "% Inhibition @ 10 uM": "-6.6%"},
      {"smiles": "O=C(OCC1CCS(=O)(=O)C1)c1ccccc1", "note": "(centres unmarked)", "% Inhibition @ 10 uM": "3.83%"},
      {"smiles": "O=c1[nH]c(=O)n(-c2ccc(Cl)cc2)c2c1C(C(F)(F)F)(C(F)(F)F)NC(c1ccncc1)=N2", "% Inhibition @ 10 uM": "-1.57%"},
      {"smiles": "COCCNC(=O)C1c2ccccc2C(=O)N(CC(C)C)C1c1cccs1", "note": "(centres unmarked)", "% Inhibition @ 10 uM": "-5.61%"},
      {"smiles": "Nc1c(-c2nc(-c3cccs3)no2)nnn1-c1ccccc1C(F)(F)F", "% Inhibition @ 10 uM": "-2.15%"},
      {"smiles": "CC(C)(C)[C@@H](NC(=O)OCc1ccccc1)C(=O)NCC#N", "% Inhibition @ 10 uM": "-3.14%"},
      {"smiles": "NC(=S)N/N=C/c1c(-c2ccccc2)[nH]c2ccccc12", "% Inhibition @ 10 uM": "4.86%"},
      {"smiles": "O=C(c1cc2ccccc2cc1O)N1N=C(C(F)F)CC1(O)C(F)F", "note": "(centres unmarked)", "% Inhibition @ 10 uM": "0.687% and 2.64%"},
      {"smiles": "COc1ccc(S(=O)(=O)N(CC(=O)Nc2c(F)cccc2F)C2CCCCC2)cc1OC", "% Inhibition @ 10 uM": "-3.05%"},
      {"smiles": "Cc1ccc(C(=O)NC(=O)CSc2nccc(O)n2)cc1", "% Inhibition @ 10 uM": "7.25%"},
      {"smiles": "O=C(COc1cccc2ccccc12)Nc1ccc(S(=O)(=O)N2CCCCCC2)cc1", "% Inhibition @ 10 uM": "-2.03%"},
      {"smiles": "COc1ccc(-c2nnc3n2C(C)(C)Cc2cc(C)c(C)cc2-3)cc1", "% Inhibition @ 10 uM": "-2.35%"},
      {"smiles": "CC1CCN(S(=O)(=O)N2CCC(C(=O)NC3CCCCC3C)CC2)CC1", "note": "(centres unmarked)", "% Inhibition @ 10 uM": "0.387%"},
      {"smiles": "CCOc1cc(/C=C2/NC(=O)N(c3cccc(Cl)c3)C2=O)ccc1OCC(N)=O", "% Inhibition @ 10 uM": "-6.43%"}
    ]}
  ]
}
